# Results published in the RNAGym collection of RNA variant scans (doi:10.7554/elife.90254).
# Read counts are not given, so values of variants with three or more changes are uncertain.
# B1: LINE1-mini (parent)
# chain: GGCAGAGCUCAACACAGCGUGGCAAAGUGGCUGUGGCUAGACUGCC
# Variants of: B1
# Experiment: self-cleavage, relative activity (ratio to wild type); higher = more cleavage; in vitro, sequencing; the parent is a self-cleaving ribozyme
row,Variant,self-cleavage
1,GGCAGCGCUCAACACAGCCUGGCAAAAUGGCUGUGGCUAGACUGCC [A6C G19C G27A],0.21
2,GGCAGGGCUCACCACAGCGUGGCAAAGUGGCUGUGGCUAAACUGCC [A6G A12C G40A],0.01
3,GGCAGGGCUCGACACAGCGUUGCAAAGUGGCUGUGGCUAGACUGCC [A6G A11G G21U],0.02
4,GGCAGGGAUCAACACAGGGUGGUAAAGUGGUUGUGGCUAGACUGAC [A6G C8A C18G C23U C31U C45A],0.08
5,GGCAGCGCUCAACACAGCGUGGCAAAAUUGCUGUGGCUAGACUGCC [A6C G27A G29U],0.28
6,GGCAGGGCUCAACGCAGCAUGGCAAAGUGGCUGUGGCUAUACUGCC [A6G A14G G19A G40U],0.17
7,GGCAGCGCUCAACACAGCGUGGCAAAGUUGCUGUUGCGAGACUGCC [A6C G29U G35U U38G],0.02
8,GGCAGCGCUCAACACAGCGAGGCAAAGUGGCUGUGGUUAGACUGCC [A6C U20A C37U],0.03
9,GGCAGCGCACAACACAGCGUGGCAAAGUGUCUGUGGCUAGACUGCC [A6C U9A G30U],0.07
10,GGCAGCGCUCAACACAGCGUGGCAAAGAGUCUGUGGGCAGACUGCC [A6C U28A G30U C37G U38C],0
11,GGCAGCGCUCAACACAGCGAGGCAAAGUGGCGGUGGCUAGACUGCC [A6C U20A U32G],0.02
12,GGCAGCGCUCAACACAGCGUGGCAAAGAGGCUUUGGCUGGACUGCC [A6C U28A G33U A39G],0.01
13,GGCAGGGCUCACCACAUCGUGGCAAUGUGGCUAUGGCUAGACUGAA [A6G A12C G17U A26U G33A C45A C46A],0.03
14,GGCAGCGCACAACACAGCGUGGCUAAGUGGCUUUGACUAGACUGCC [A6C U9A A24U G33U G36A],0.09
15,GGCAGGGCUCUACAGGGCGUCGCAAAGAGGCUGUGGCUAGACUGCC [A6G A11U C15G A16G G21C U28A],0.02
16,GGCAGGGCUCAACACAGCGUGGCACAGUGGCUGUGGCUAGAGUGAC [A6G A25C C42G C45A],0.02
17,GGCAGCGCUCAACACAGCGUGGCAAAGUGGCUGUGGCUAGACUCAC [A6C G44C C45A],0.37
18,GGCAGCGCUCAACACAUCGCGGCAAAGUGGCUGUGGGUAGACUGCC [A6C G17U U20C C37G],0.04
19,GGCAGGGCUCAACGCAUCGUGGCAAAGUGUCUGUACCUAGGCUGCC [A6G A14G G17U G30U G35A G36C A41G],0.05

row,Variant,self-cleavage
1,GGCAGGGCUCAACACAGCGUGGCAAGGUGGCUUUGGCGAGACUGCC [A6G A26G G33U U38G],0.02
2,GGCAGCGCUCAACACAGCGUGGCAAACUGGCUGUGGCUUGACUGCC [A6C G27C A39U],0.06
3,GGCAGGGCUCAGCACAGCGUGGCAAAGUGGCUGUGGCUAGAUUGCC [A6G A12G C42U],0.03
4,GGCAGCGCUCAACACAGCGUGGCAAAGGGGCUGAGUCUAGACUGCC [A6C U28G U34A G36U],0.02
5,GGCAGGGAUCAAAACAGCGUGGCAAAGUUGCUGUGGCUAGACUGCC [A6G C8A C13A G29U],0.16
6,GGCAGGGCUCAACACAGCGUGGCACCGUGGCUGUGGCUAGACUGCC [A6G A25C A26C],0.1
7,GGCAGCGCUCAACACAGCAUGGCAAAGUGGGUGUGGCUAGACUGCC [A6C G19A C31G],0.14
8,GGCAGCGCUCAACACAGCGUUGCAAAGUGGCAGUGGCUAGACUGCC [A6C G21U U32A],0.02
9,GGCAGCGCUCAACACAGCGUGGCAAAGUGGCUAUGGCUAGACAGCC [A6C G33A U43A],0.03
10,GGCAGGGCUCAACACCGCGUGGCAACCUGGCUGUGGCUAGACAGCU [A6G A16C A26C G27C U43A C46U],0.07
11,GGCAGGGCUCUACACAGAGUGGCAAAGUGGCUGUGGUAAGACUGCC [A6G A11U C18A C37U U38A],0.01
12,GGCAGGGCUCAACACAGCGUGGCAGAGUGGCUGUGGCUAGACUUCC [A6G A25G G44U],0
13,GGCAGCGCUCAACACAGCGUGGCAAAGUGGCUGUGGCGAGACUUCC [A6C U38G G44U],0.02
14,GGCAGCGCUCAACACAGCGUAGCAAAGUGGCUGUGGCUAGACUGUC [A6C G21A C45U],0.65
15,GGCAGGGCUCAACACAGCGUGGCCAAGUGGCUGUGGAUAGACUGCC [A6G A24C C37A],0.06
16,GGCAGCGCCCAACACAGCGUAGUAAAGUGGCUGUGGCUAGAAUGCG [A6C U9C G21A C23U C42A C46G],0.06
17,GGCAGCGCUCAACACAGCGUGGCAAAGUGGCUGUGACUAUACUUCC [A6C G36A G40U G44U],0.04
18,GGCAGGGCUCAACACGGCCUGGCAUAGUGGCUGUGGCUAGACUGCC [A6G A16G G19C A25U],0.02
19,GGCAGGGAUCAACAAAGCGUGGCAAAGUGACUGUGGCGAGACUGCC [A6G C8A C15A G30A U38G],0.25

row,Variant,self-cleavage
1,GGCAGGGAUAAACACUGCGUGGCAAAGUGGCUGUGGCUAGACUGAC [A6G C8A C10A A16U C45A],0.01
2,GGCAGCGCUCAACACAGCGUGGCAAACUGGCUGUGUCUAGACUGCC [A6C G27C G36U],0.02
3,GGCAGGGCUCAUCACAGCGUGGCAAAGUGGGUGUGGCCUGACUGCC [A6G A12U C31G U38C A39U],0.18
4,GGCAGGGCUCAACGCAUCGUCGCAAAGUGUCUGUGGCUAGAGUACC [A6G A14G G17U G21C G30U C42G G44A],0.01
5,GGCAGGGCUCAACACAGCGUGGCGAAGUCCCUGUGGCUAGACUGCC [A6G A24G G29C G30C],0.29
6,GGCAGGGCUCAACACAGCGUGGCUAAGUGGCUGUGGCUAGACUAAC [A6G A24U G44A C45A],0.03
7,GGCAGCGCUCAACACAGCGUGGCAAAUUGGCUGUGGCUAGUCUGCC [A6C G27U A41U],0.15
8,GGCAGGGCUCAACACAGCGUGGCAGAGUGGCUUUGGUUAGAUUGCC [A6G A25G G33U C37U C42U],0.04
9,GGCAGGGCUCAGCCCAGCGUCGCAAAGUGGCUGUGGCUAGACUGCC [A6G A12G A14C G21C],0.04
10,GGCAGGGCUCACCACAGCGUUGCAAAUUGACUGUGGCUAGACUGCC [A6G A12C G21U G27U G30A],0.02
11,GGCAGCGCUCAACACAGCGGAGGUAAGUGGCUGUGGUUAGACUGCC [A6C U20G G21A C23G A24U C37U],0
12,GGCAGGGCUCAACACAGCGUGGCAGAGUGGCUGUGGCUAGACUUGC [A6G A25G G44U C45G],0.02
13,GGCAGCGCUCAACACAGCGUUGCAAAGUGGCUGGGGCUACACUGCC [A6C G21U U34G G40C],0.03
14,GGCAGGGCUCAACACAGCGUGGCAACGUGGCUGUGACUAAACUGCC [A6G A26C G36A G40A],0.05
15,GGCAGGGCUCCACACCGCGUGGCAAAGUGGCUGUGGCUAGACUGCU [A6G A11C A16C C46U],0.02
16,GGCAGCGCUCAACACAGCGGGGCAAAGUGGCUGUGGUUAGGCUGCC [A6C U20G C37U A41G],0.04
17,GGCAGGGCUCAACACGGUGUGGCAAAGUGGCUGUGGCUAGACUGCC [A6G A16G C18U],0.03
18,GGCAGGGCUCAACACGGCGUGGCAAAGUGGCUGUGGCUACACUGUC [A6G A16G G40C C45U],0.01
